SMILES strings stand for the structures. Hit rate of the full screen: of about 150,000 compounds, about 540 (0.36%) showed an effect of 50% or more. The list shows a part of the results.

The subject of this test is Plasmodium falciparum. The experiment in a line: Primary screen in NF54 nanoGlo assay, in single point, at 2uM, 72h; a lower Z score goes with more inhibition. The format is functional, Erythrocyte. The note with it: timepoint 72 hour.
In the case of `Cc1cccn2cc(COc3ccccc3C(=O)NCc3ccccn3)nc12`, the “% Inhibition” value is -12% and the Z score is on record as 1.61.

For `O=S(=O)(c1ccc2c(c1)OCCCO2)N1CC(c2nc3ccccc3s2)C1`, the “% Inhibition” value is 4% and the Z score is -0.9.

In the case of `O=C(c1cc(C2CC2)n[nH]1)N1C[C@@H]2CC[C@H]1CN(Cc1cccnc1)C2`, the “% Inhibition” value is listed as -9% and the Z score is 0.89.

Regarding `C[C@H]1Cc2ccccc2N1Cc1ccoc1C(=O)NCCC1(O)CCC1`, the “% Inhibition” value is given as -8% and the Z score is recorded as 1.35.

For the compound `COC(=O)C1C(O)CCCN1C(=O)C1CCC(NC(=O)CC2CCCC2)CC1` (centres undefined), the “% Inhibition” value worked out at 12% and the Z score was -1.38.

In the case of `Cc1cc(C)c2[nH]c(C(=O)N[C@H]3C[C@H]4OCC[C@@H]34)c(C)c2c1`, the “% Inhibition” value is on record as -12% and the Z score came to 1.53.

Turning to `O=C(CCc1ccccc1)N1CCOC2CCCCC21` (centres undefined), the “% Inhibition” value was -4% and the Z score worked out at 0.71.

Turning to `CCc1cc(N[C@H](c2nc(C3CC3)no2)C(C)C)ncn1`, the “% Inhibition” value amounted to 7% and the Z score is -0.99.

As to `CCN1CC2(CCN(Cc3noc(C)n3)CC2)C[C@@H](c2ccccc2)C1=O`, the “% Inhibition” value is -7% and the Z score stood at 0.9.

Take `CC(C)CNC(=O)C[C@H]1COCCN1C(=O)c1cnc2cccnn12`: the “% Inhibition” value came to 14% and the Z score was -2.05.

In the case of `Cc1ccc(N(C)C(=O)[C@H]2[C@@H]3C[C@@H]4[C@H]2C(=O)O[C@@H]4C3)cc1`, the “% Inhibition” value is -9% and the Z score is reported as 1.04.

Consider `O=C(NC1CCC(n2cccn2)CC1)[C@@H]1CC=CCC1` (some centres undefined), for which the “% Inhibition” value was 1% and the Z score is -0.09.

Turning to `Cc1nn(C)c(C)c1CNCc1cc2ccc(F)cc2n(CCN2CCCCC2)c1=O`, the “% Inhibition” value was -5% and the Z score was 1.

Take `CCCCCc1ccc(C(=O)N(CCOC)Cc2ccc(OC)c(OS(=O)(=O)c3ccc(F)cc3)c2)cc1`: the “% Inhibition” value was -12% and the Z score is given as 1.28.

On to `O=C(N[C@@H]1CCCC[C@H]1NC(=O)C1CCCN(C(=O)c2ccc(Cl)cc2Cl)C1)c1ccc(F)cc1` (some centres undefined), for which the “% Inhibition” value worked out at 10% and the Z score was -1.71.

In the case of `CCC[C@H]1C=CCN1C(=O)c1cccc(CN)c1`, the “% Inhibition” value is -2% and the Z score was determined as 0.32.

With `Cn1cncc1CNC1CCC(Cc2ccccc2)C1` (centres undefined), the “% Inhibition” value worked out at 3% and the Z score is recorded as -0.45.

For `Cc1cccc(-n2nc(C)c(CCC(=O)NCc3ccccc3)c2Oc2ccccc2C)c1`, the “% Inhibition” value is recorded as -25% and the Z score is given as 3.6.

Regarding `CS(=O)(=O)N[C@@H](Cc1ccccc1)C1CC1`, the “% Inhibition” value is recorded as -1% and the Z score worked out at 0.08.

`Cc1cc(C(=O)N2CCN(C(=O)c3scc(C)c3Cl)[C@H](C)C2)n[nH]1`: the “% Inhibition” value is 5% and the Z score is recorded as -0.61.

On to `Cn1cnn(CCC(=O)N[C@H]2CC2(C)C)c1=O`, for which the “% Inhibition” value is -8% and the Z score worked out at 1.13.

With `COc1cc(OC)cc(C(=O)Nc2ccc3c(c2)C(=O)Nc2ccccc2O3)c1`, the “% Inhibition” value amounted to 29% and the Z score is given as -3.28.

As to `O=C(Nc1cccnc1)[C@@H]1CCCCN1C(=O)OCc1ccccc1`, the “% Inhibition” value came to 0% and the Z score came out at 0.02.

Turning to `CCCN(CCC)c1nc2ccccc2c2nc(C)nn12`, the “% Inhibition” value is recorded as -16% and the Z score is listed as 1.58.

In the case of `Cc1cnc(-n2cnnc2)c(-c2cc[nH]n2)c1`, the “% Inhibition” value was -4% and the Z score was 0.65.

Regarding `CNC(=O)c1cccc(NC(=O)N[C@H]2C[C@@H](OC(C)C)C2)n1`, the “% Inhibition” value is recorded as 4% and the Z score was -0.69.

Regarding `CCOc1ccc(C(=O)N[C@@H]2COCC[C@@H]2OCc2ccccn2)o1`, the “% Inhibition” value is on record as -3% and the Z score is on record as 0.57.

On to `CCc1noc(C)c1C(=O)Nc1cccc(-c2csc(C)n2)c1`, for which the “% Inhibition” value is listed as -1% and the Z score is 0.11.

With `COc1cc(OC)nc(-c2ccc(C(=O)N3CCCCCCC3)cc2)n1`, the “% Inhibition” value was -7% and the Z score is recorded as 1.33.

Take `CCn1c(=O)c(-c2ccc(C(=O)NC3CCCCC3)cc2)nc2ccccc21`: the “% Inhibition” value was -21% and the Z score stood at 1.98.

For the compound `Cc1cccc2c(=O)[nH]c(Cn3cc(C(F)(F)F)cc(Cl)c3=O)nc12`, the “% Inhibition” value was -15% and the Z score is recorded as 2.29.

As for `COCCn1ccc(NC(=O)C(=O)NCCCc2c[nH]c3ccccc23)n1`, the “% Inhibition” value is -13% and the Z score came to 1.57.

Consider `C[C@@H]1CN(C(=O)CCc2cn3ccccc3n2)C[C@]1(C)O`, for which the “% Inhibition” value is on record as -2% and the Z score is listed as 0.22.

Take `Cn1nc(C(F)(F)F)c2cc(C(=O)NCCc3ccc[nH]3)cnc21`: the “% Inhibition” value is reported as -13% and the Z score is 1.28.

As for `O=C(NCc1cc[nH]n1)N1CCN(c2nccs2)CC1`, the “% Inhibition” value is given as -7% and the Z score amounted to 1.39.

For `CC(COc1ccc(F)c(F)c1)NCC(O)C1CCOCC1` (centres undefined), the “% Inhibition” value is -11% and the Z score was found to be 1.02.

Consider `Cc1ccc2c(c1)N(S(C)(=O)=O)CC[C@@H](C(=O)Nc1ccccc1C(=O)N1CCCCCC1)O2`, for which the “% Inhibition” value stood at 5% and the Z score is reported as -0.68.

Consider `CC(C)(C)C[C@H]1CCN(C(=O)CCn2cnccc2=O)C1(C)C`, for which the “% Inhibition” value is -9% and the Z score came out at 1.22.

On to `COc1nc(-c2cnn(C)c2)cc(C(F)(F)F)n1`, for which the “% Inhibition” value was determined as 1% and the Z score is given as -0.12.

With `C#C[C@H](C)NS(=O)(=O)Cc1cc(OC)ccc1Br`, the “% Inhibition” value is given as -8% and the Z score is 1.48.

In the case of `COc1cc(Cl)c(C)cc1NC(=O)CN1CC[C@@]2(CCCOC2)C1`, the “% Inhibition” value was -9% and the Z score stood at 1.17.

`CC[C@@H]1Oc2ccc(NS(=O)(=O)c3ccc(Cl)cc3)cc2CN(CCc2ccccc2OC)C1=O`: the “% Inhibition” value is -13% and the Z score turned out to be 1.21.

For orientation: % Inhibition means the relative decrease from the control value, in per cent.
